{"source": "the RNAGym collection of RNA variant scans (doi:10.7554/elife.90254)", "parents": {"B1": {"name": "LINE1-mini (parent)", "chain": "GGCAGAGCUCAACACAGCGUGGCAAAGUGGCUGUGGCUAGACUGCC"}}, "note": "The source gives no read counts; variants with many changes may rest on few reads."}
{"variants_of": "B1", "assay": "self-cleavage, relative activity (ratio to wild type); higher = more cleavage; in vitro, sequencing; the parent is a self-cleaving ribozyme"}
{"variant": "G1C C42U U43C", "self-cleavage": 0.04}
{"variant": "G1C A12C G30A U32A", "self-cleavage": 0}
{"variant": "G1C G5C C13U G33C", "self-cleavage": 0.04}
{"variant": "G1C C13U G19C C31A", "self-cleavage": 0.01}
{"variant": "G1C C8A A16C A25G U28G U32G G40U", "self-cleavage": 0.01}
{"variant": "G1C A14U C23U C31A", "self-cleavage": 0.02}
{"variant": "G1C G2C A16U", "self-cleavage": 0.01}
{"variant": "G1C G2C C15U U34A G35A G36C", "self-cleavage": 0.01}
{"variant": "G1C G5U C18U G19A A26C", "self-cleavage": 0.02}
{"variant": "G1C G19C G21A C23A U28C", "self-cleavage": 0.09}
{"variant": "G1C C3U A24C G44U", "self-cleavage": 0.01}
{"variant": "G1C G19C G30C U32C U34A U38A", "self-cleavage": 0.01}
{"variant": "G1C G5U U20C", "self-cleavage": 0.02}
{"variant": "G1C C18A A26C", "self-cleavage": 0.07}
{"variant": "G1C C15A A41G C45G", "self-cleavage": 0.02}
{"variant": "G1C G5U U34C C45A", "self-cleavage": 0.01}
{"variant": "G1C C10U G17U A39G", "self-cleavage": 0}
{"variant": "G1C G7U G17A U20C G40C", "self-cleavage": 0.03}
{"variant": "G1C A16U G21U A24C G30U A41U C46A", "self-cleavage": 0.02}
{"variant": "G1C C3A G33C G44C", "self-cleavage": 0.01}
{"variant": "G1C A39U C46G", "self-cleavage": 0.14}
{"variant": "G1C G19C U28A G40U", "self-cleavage": 0}
{"variant": "G1C C8A A14U G27A G33A", "self-cleavage": 0.04}
{"variant": "G1C C10U A24U G29U", "self-cleavage": 0.02}
{"variant": "G1C C23A C37G", "self-cleavage": 0.01}
{"variant": "G1C G2A C8G G30U", "self-cleavage": 0.03}
{"variant": "G1C G19U U20A A24U", "self-cleavage": 0.03}
{"variant": "G1C C37A A39U", "self-cleavage": 0.06}
{"variant": "G1C G22A G27A", "self-cleavage": 0.08}
{"variant": "G1C G7A C13A", "self-cleavage": 0.02}
{"variant": "G1C C13A G22U", "self-cleavage": 0.01}
{"variant": "G1C G7C C8A", "self-cleavage": 0.02}
{"variant": "G1C A12U C46A", "self-cleavage": 0.05}
{"variant": "G1C G19A C23G U43C", "self-cleavage": 0.05}
{"variant": "G1C G2A C15U C42U", "self-cleavage": 0.13}
{"variant": "G1C C10A U32G G40C", "self-cleavage": 0.02}
{"variant": "G1C G19C G27A", "self-cleavage": 0.06}
{"variant": "G1C C15A G21U A26U U43G", "self-cleavage": 0}
{"variant": "G1C C18A G27A U28C G36U", "self-cleavage": 0.02}
{"variant": "G1C C18U U20C A26U", "self-cleavage": 0.05}
{"variant": "G1C C8U G19A C37U", "self-cleavage": 0}
{"variant": "G1C A14G G17C U28C U32G C42A", "self-cleavage": 0.02}
{"variant": "G1C A24G C31G G35A", "self-cleavage": 0.01}
{"variant": "G1C A16U U20A U38A C45A", "self-cleavage": 0.04}
{"variant": "G1C G7C C10G C13A A25C G36U C37A", "self-cleavage": 0}
{"variant": "G1C G7U C18G A26G G40U C42A C45U", "self-cleavage": 0.02}
{"variant": "G1C G5C C8U", "self-cleavage": 0.04}
{"variant": "G1C G2C C3G A11U", "self-cleavage": 0.1}
{"variant": "G1C C10A C13U U34A A39C", "self-cleavage": 0}
{"variant": "G1C G5A C10A A11G A14U G17A C42A G44U C46A", "self-cleavage": 0.01}
{"variant": "G1C C3G A4G G7U A16C C31U", "self-cleavage": 0.1}
{"variant": "G1C A25C G30U C37A G40A", "self-cleavage": 0.01}
{"variant": "G1C C10G A26C G30U", "self-cleavage": 0.01}
{"variant": "G1C A16C G33U G36U G44U", "self-cleavage": 0}
{"variant": "G1C C15U G30U", "self-cleavage": 0.04}
{"variant": "G1C A16C A24U", "self-cleavage": 0.01}
{"variant": "G1C A16C A26G", "self-cleavage": 0.08}
{"variant": "G1C C10G C18A", "self-cleavage": 0}
{"variant": "G1C C13G A25G A41C", "self-cleavage": 0.02}
{"variant": "G1C G7U G17A G19C C23A U28G G35U U38A", "self-cleavage": 0.01}
{"variant": "G1C A14G C31U", "self-cleavage": 0.01}
{"variant": "G1C A12G G30U A39C", "self-cleavage": 0.01}
{"variant": "G1C A14G C18A G21C", "self-cleavage": 0.01}
{"variant": "G1C G7U A14C A16U C18A G33U G40U", "self-cleavage": 0.03}
{"variant": "G1C A16C G21U C45A", "self-cleavage": 0.02}
{"variant": "G1C C10A C31A G40A A41G C42A", "self-cleavage": 0}
{"variant": "G1C G2U G30U G33C", "self-cleavage": 0.02}
{"variant": "G1C C10U G19A A39U A41U G44U", "self-cleavage": 0.02}
{"variant": "G1C A14U C46U", "self-cleavage": 0.06}
{"variant": "G1C C10A C18A C46U", "self-cleavage": 0.01}
{"variant": "G1C A25C A26C G40U", "self-cleavage": 0.01}
{"variant": "G1C C13A G17U G33C U34C G40C", "self-cleavage": 0.02}
{"variant": "G1C A26U G27U", "self-cleavage": 0.02}
{"variant": "G1C G19A C31U U34G G36C", "self-cleavage": 0}
{"variant": "G1C C10A G19C G27C C45A C46A", "self-cleavage": 0}
{"variant": "G1C C8A C18U U20A", "self-cleavage": 0.02}
{"variant": "G1C G22A C31G G33U", "self-cleavage": 0.01}
{"variant": "G1C G2C G17A G19A U20C", "self-cleavage": 0}
{"variant": "G1C A16U G21U", "self-cleavage": 0}
{"variant": "G1C C15A G19C", "self-cleavage": 0.02}
{"variant": "G1C C31A U34G", "self-cleavage": 0}
{"variant": "G1C C8G C18A A26G U32A", "self-cleavage": 0}
{"variant": "G1C G5A U9A C13U C31G G40C", "self-cleavage": 0.06}
{"variant": "G1C G7U A14G G27U", "self-cleavage": 0.02}
